Experimental data taken from US20210147536A1 (MAB VENTURE BIOPHARM, published 2021).

Experiments:
[1] = target: T1, human LAG-3-6*His tag recombinant fusion protein (human, UniProt P18627 23-450, biotin-labelled in panning and in Example 9); test: ELISA, antibody coated at 1 µg/ml, human LAG-3-6*His titrated (the concentration axis is the antigen), anti-His-HRP detection, single experiment
T1 construct: Bought protein; also called hLAG-3-6*his tag recombinant protein; human LAG-3-his tag recombinant fusion protein
T1 sequence: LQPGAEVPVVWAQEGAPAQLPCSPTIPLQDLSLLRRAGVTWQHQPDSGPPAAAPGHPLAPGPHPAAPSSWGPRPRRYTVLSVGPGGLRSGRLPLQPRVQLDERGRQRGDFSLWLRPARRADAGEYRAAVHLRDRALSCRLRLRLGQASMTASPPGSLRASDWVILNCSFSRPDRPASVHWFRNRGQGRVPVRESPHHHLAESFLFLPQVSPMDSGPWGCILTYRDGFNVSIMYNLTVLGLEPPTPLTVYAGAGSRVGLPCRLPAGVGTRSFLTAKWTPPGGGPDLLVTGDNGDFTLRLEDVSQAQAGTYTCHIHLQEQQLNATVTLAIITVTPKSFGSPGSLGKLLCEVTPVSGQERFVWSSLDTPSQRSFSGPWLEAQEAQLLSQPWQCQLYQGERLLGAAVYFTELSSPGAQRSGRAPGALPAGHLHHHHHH

[2] = target: T1, human LAG-3-6*His tag recombinant …; test: ELISA, antibody coated at 1 µg/ml, human LAG-3-6*His titrated, anti-His HRP; range of three experiments
[3] = target: T2, recombinant Macaca fascicularis LAG-3-6*His tag fusion protein (Macaca fascicularis); test: ELISA, antibody coated at 1 µg/ml, Macaca fascicularis LAG-3-6*His titrated, anti-His HRP
T2 construct: Bought protein; also called Macaca fascicularis LAG-3 antigen

[4] = target: T3, recombinant mouse LAG-3-6*His tag fusion protein (mouse, UniProt Q61790 23-442); test: ELISA, antibody coated at 1 µg/ml, mouse LAG-3-6*His titrated, anti-His HRP
T3 construct: made in Expi293 cells from the mouse LAG-3 cDNA; also called mouse LAG-3 antigen
T3 sequence: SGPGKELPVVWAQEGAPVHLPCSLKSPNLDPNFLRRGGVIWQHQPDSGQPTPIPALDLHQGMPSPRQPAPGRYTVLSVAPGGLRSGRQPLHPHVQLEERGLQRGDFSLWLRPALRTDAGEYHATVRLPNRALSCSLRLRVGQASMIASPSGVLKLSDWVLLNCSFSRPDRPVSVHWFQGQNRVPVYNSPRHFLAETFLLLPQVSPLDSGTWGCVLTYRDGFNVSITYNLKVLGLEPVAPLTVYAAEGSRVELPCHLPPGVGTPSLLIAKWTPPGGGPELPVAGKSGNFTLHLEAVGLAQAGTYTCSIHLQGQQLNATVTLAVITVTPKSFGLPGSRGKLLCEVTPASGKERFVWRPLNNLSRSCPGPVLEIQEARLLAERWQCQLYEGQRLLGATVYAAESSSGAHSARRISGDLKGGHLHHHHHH

[5] = target: T4, human LAG-3-mFc recombinant fusion protein (human); test: flow cytometry, blocking of hLAG-3-mFc (10 µg/ml) binding to MHC class II on Daudi cells
T4 construct: also called hLAG-3-mFc
T4 chain: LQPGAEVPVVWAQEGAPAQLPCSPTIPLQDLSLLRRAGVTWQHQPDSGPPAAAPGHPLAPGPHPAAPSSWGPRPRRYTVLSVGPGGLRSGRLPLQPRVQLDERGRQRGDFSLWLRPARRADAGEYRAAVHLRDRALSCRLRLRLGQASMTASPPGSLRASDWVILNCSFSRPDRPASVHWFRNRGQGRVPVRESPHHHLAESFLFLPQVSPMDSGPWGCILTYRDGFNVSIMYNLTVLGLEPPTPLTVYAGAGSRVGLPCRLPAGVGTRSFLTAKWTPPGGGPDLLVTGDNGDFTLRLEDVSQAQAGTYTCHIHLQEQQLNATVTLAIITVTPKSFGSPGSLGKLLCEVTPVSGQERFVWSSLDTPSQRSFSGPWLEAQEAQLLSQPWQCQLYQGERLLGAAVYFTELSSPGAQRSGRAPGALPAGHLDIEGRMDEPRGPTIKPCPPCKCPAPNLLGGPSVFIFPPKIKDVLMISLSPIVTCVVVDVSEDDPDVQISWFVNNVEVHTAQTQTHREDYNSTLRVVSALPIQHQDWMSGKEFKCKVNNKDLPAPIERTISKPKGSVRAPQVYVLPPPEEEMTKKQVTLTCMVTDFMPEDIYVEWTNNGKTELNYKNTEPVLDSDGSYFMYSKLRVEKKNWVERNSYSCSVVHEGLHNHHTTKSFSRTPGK

[6] = target: T5, human LAG-3 on the cell surface (human, UniProt P18627 23-525); test: flow cytometry on activated human CD4+ T cells expressing LAG-3, PE anti-human antibody
T5 construct: whole, on cells; also called cells expressing the human LAG-3
T5 sequence (looked up): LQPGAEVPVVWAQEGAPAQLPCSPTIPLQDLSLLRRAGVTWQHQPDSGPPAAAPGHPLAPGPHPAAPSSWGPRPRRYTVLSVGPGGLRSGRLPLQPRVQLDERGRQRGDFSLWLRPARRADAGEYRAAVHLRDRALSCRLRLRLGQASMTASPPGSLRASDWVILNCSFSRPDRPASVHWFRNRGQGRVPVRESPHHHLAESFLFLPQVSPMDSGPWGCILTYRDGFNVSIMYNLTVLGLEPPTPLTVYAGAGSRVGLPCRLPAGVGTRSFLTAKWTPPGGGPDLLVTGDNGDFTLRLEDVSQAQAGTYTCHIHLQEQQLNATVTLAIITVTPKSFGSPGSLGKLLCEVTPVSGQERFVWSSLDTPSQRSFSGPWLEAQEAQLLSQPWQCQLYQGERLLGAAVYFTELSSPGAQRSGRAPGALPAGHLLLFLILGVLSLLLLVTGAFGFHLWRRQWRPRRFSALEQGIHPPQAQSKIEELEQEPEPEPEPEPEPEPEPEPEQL

[7] = target: T5, human LAG-3 on the cell surface; test: flow cytometry on cells expressing the human LAG-3, PE anti-human IgG; N = 4
[8] = target: T1, human LAG-3-6*His tag recombinant …; test: SPR BIAcore T200, antibody on CM5 chip, human LAG-3-6*His 0.352 to 45 nM as analyte
[9] = target: T5, human LAG-3 on the cell surface; test: cell-based or functional assay

B1: positive control antibody 25F7 (antibody, human IgG4 S228P, kappa)
heavy: QVQLQQWGAGLLKPSETLSLTCAVYGGSFSDYYWNWIRQPPGKGLEWIGEINHNGNTNSNPSLKSRVTLSLDTSKNQFSLKLRSVTAADTAVYYCAFGYSDYEYNWFDPWGQGTLVTVSSASTKGPSVFPLAPCSRSTSESTAALGCLVKDYFPEPVTVSWNSGALTSGVHTFPAVLQSSGLYSLSSVVTVPSSSLGTKTYTCNVDHKPSNTKVDKRV[human IgG4 Fc with S228P (EU numbers) omitted]
light: EIVLTQSPATLSLSPGERATLSCRASQSISSYLAWYQQKPGQAPRLLIYDASNRATGIPARFSGSGSGTDFTLTISSLEPEDFAVYYCQQRSNWPLTFGQGTNLEIKRTVAAPSVFIFPPSDEQLKSGTASVVCLLNNFYPREAKVQWKVDNALQSGNSQESVTEQDSKDSTYSLSSTLTLSKADYEKHKVYACEVTHQGLSSPVTKSFNRGEC
notes: made in an IgG4 kappa vector in ExpiCHO-S cells; also called BMS-25F7; BMS control monoclonal antibody
EC50 (read off the curve) [1]: ~0.09 µg/mL
EC50 [2]: 0.08 to 0.14 µg/mL
EC50 [3]: 7 µg/mL
EC50 [4]: 3.2 µg/mL
IC50 [5]: 3.3 µg/mL
EC50 [6]: 0.0168 µg/mL
EC50 [7]: 0.039 µg/mL
Kd [8]: 0.356 nM
koff [8]: 0.00171 s⁻¹
kon [8]: 4.81e+06 M⁻¹ s⁻¹
EC50 of NFAT reporter gene induction (bio-glo luciferase), LAG3/NFAT Reporter-Jurkat + Raji cells + superantigen [9]: 0.64 µg/mL
